# Reference: PubChem BioAssay AID1671194 (National Center for Advancing Translational Sciences (NCATS), 2021)
# The campaign covered roughly 140,000 compounds. About 240 (0.17%) were called active. Inconclusive means that the source gave no clear call. Such entries were picked first, then a sample of the others. Calls come from the whole dose curve; as a rule, active = well fitted inhibition curve with a large enough effect; inconclusive = small, poorly fitted or top-dose-only effect; inactive = no such curve, though single readings can be large or run the other way. Potencies beside an inconclusive call are fits to weak or partial responses and may not hold up.
# Assay: Primary qHTS assay for inhibitors of alpha-synuclein gene (SNCA) expression; note: nearly all actives have a fitted effect of over 45% in size;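 for activity change, negative = inhibition: plate controls were DMSO cells for no effect and cell-free wells for full effect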
# Conditions: HEK-293 SNCA-luciferase knock-in, luminescence, 24 h; activity change, negative = inhibition: at 57.2 µM (top of the series) unless noted
# Potency is the fitted concentration of half-maximal effect; tags give direction and shape of the fitted curve.
SMILES,"activity change, negative = inhibition",Potency
CCCCNC(=O)c1ccc2c(c1)n(Cc1cccc(OC)c1)c(=O)c1ccnn12,inactive: 11%,
CCc1cc(=O)n(CC(=O)Nc2cc(OC)c(OC)c(OC)c2)c(-c2ccccc2)n1,,"inconclusive: 39.8 µM [inhibitor, partial curve, poor fit]"
O=C(NC1CCCN(c2cc(-c3ccccc3)[nH]n2)C1)c1cccc(Cl)c1 (centres undefined),,"inconclusive: 1.41 µM [inhibitor, full curve, poor fit]"
CN(C)c1ccc2nnc(-c3cc(C(=O)NCCc4ccccn4)ccn3)n2n1,,"inconclusive: 8.91 µM [inhibitor, partial curve, poor fit]"
COc1ccc(NC(=O)O[C@@H]2CO[C@H]3[C@@H]2OC[C@@H]3NCc2ccc(-c3ccccc3)cc2)cc1,,"inconclusive: 17.8 µM [inhibitor, partial curve, poor fit]"
Clc1ccc2ncc(-c3cccc(NC4CNC4)n3)n2c1,,active: 0.607 µM
CCOc1ccc2oc(=O)cc(CN3CCN(C(=O)c4cccc(Cl)c4)CC3)c2c1,,"inconclusive: 39.8 µM [inhibitor, single point]"
COc1cccc(CN2CCCC3(CN[S+](=O)([O-])c4ccccc4N3)C2)c1 (centres undefined),,"inconclusive: 2.51 µM [inhibitor, full curve]"
COCc1nc2nc(-c3ccccc3)c(-c3ccc(N4CCN(C)CC4)nc3)cc2n1C,inactive: -5.76% [at 87.6 µM],
CN(Cc1ccc(F)cc1)C(=O)c1cn(Cc2ccccc2C(F)(F)F)nn1,,"inconclusive: 10 µM [inhibitor, partial curve, poor fit]"
COc1ccc(CNC(=O)c2ccc(NC(=O)N3CCCCc4ccccc43)cc2)c(OC)c1,,"inconclusive: 1.78 µM [inhibitor, full curve]"
C#CCC(Cc1cnc2nc(N)nc(N)c2n1)c1ccc(C(=O)N[C@@H](CCC(=O)O)C(=O)O)cc1 (some centres undefined),,"inconclusive: 0.482 µM [inhibitor, full curve]"
COc1cccc(-c2cccc(C(=O)N3CCN(C(=O)Nc4ccc(Cl)cc4)CC3)c2)c1,,"inconclusive: 15.8 µM [inhibitor, partial curve, poor fit]"
COc1ccc(C2Cn3cnc(C(=O)N4CCC(C(=O)NCC5CCCO5)CC4)c3CO2)cc1 (centres undefined),inactive: 1.38%,
Cc1ccccc1-n1nc(C)c([C@H]2C=C[C@@H](OC(=O)N[C@H](C)c3ccccc3)C2)c1C,,"inconclusive: 5.01 µM [inhibitor, single point]"
Cc1ccc(-c2ccc3nnc(CNC(=O)c4cccc(N(C)C)c4)n3n2)cc1C,inactive: 144%,
COc1ccc(-c2cc(C(=O)NCc3c(C)cc(C)[nH]c3=O)c3c(c2)N(C(C)C)CCO3)cc1,inactive: -29.2%,
COc1ccc(N2C(=O)C3(CCCCC3)C2C(=O)NCc2nc3ccccc3n2C)cc1 (centres undefined),,"inconclusive: 3.98 µM [inhibitor, full curve]"
O=C(c1nnc(COc2ccc3c(c2)OCO3)n1Cc1ccccc1)N1CCC[C@@H]1c1ccc(Br)cc1,,"inconclusive: 25.1 µM [inhibitor, single point]"
Cc1ncc2c(N3CC4CCC(C3)N4CC(F)(F)F)nc3ccccc3n12,inactive: 19.3%,
O=C1CC(c2noc(-c3nccc4ccccc34)n2)CN1C1CCCCC1 (centres undefined),inactive: -3.36%,
COc1cccc(-c2nc(S(=O)(=O)c3ccc(C)cc3)c(NCc3ccccc3)o2)c1,,"inconclusive: 3.16 µM [inhibitor, single point]"

SMILES,"activity change, negative = inhibition",Potency
CN(C)S(=O)(=O)N1CCc2c(nc3cc(-c4ccccc4)[nH]n3c2=O)C1,inactive: -4.42%,
Cc1ccsc1C(=O)N1CCC2(CC1)CC(N(Cc1ccc(F)cc1)C1CC1)CCO2 (centres undefined),inactive: -18.9%,
COc1cccc(C(=O)NC2CCCN(c3ccnc4ccnn34)C2)c1 (centres undefined),,"inconclusive: 10 µM [inhibitor, partial curve, poor fit]"
CC(C)(C)OC(=O)N1CCC(c2c(C(=O)N3CCN(c4ccccc4F)CC3)cnn2C(C)(C)C)CC1,inactive: -14%,
CC(=O)N1CCN(C(=O)C[C@@H]2CCNC[C@@H]2Cc2cc(-c3ccccc3)on2)CC1,inactive: 9.09% [at 87.6 µM],
CCc1cccc(NC(=O)Cn2c(=O)n(Cc3ccccc3)c(=O)c3c(C)c(C(=O)N(C)C)sc32)c1,,active: 12.6 µM
CCOc1ccccc1N(C)C(=O)c1cc(S(=O)(=O)NCc2ccc(C)cc2)ccc1F,,"inconclusive: 39.8 µM [inhibitor, single point]"
O=C(Nc1ccccc1)N1CCc2nn(Cc3ccccc3)c(=O)n2CC1,,"inconclusive: 5.62 µM [inhibitor, full curve, poor fit]"
Fc1ccc(NCc2ccccc2-c2nnc(-c3ccccc3Cl)o2)cc1Cl,inactive: 69.4%,
CN(Cc1ccccc1)Cc1cn([C@H]2CO[C@H]3[C@@H]2OC[C@@H]3NS(=O)(=O)c2cccc3cccnc23)nn1,inactive: -3.83%,
CCc1ccc(-c2cc(C)no2)cc1S(=O)(=O)NCc1ccc(OC)cc1,,"inconclusive: 2.82 µM [inhibitor, single point]"
COc1nccnc1NC1CCN(C(=O)NCc2ccc(F)cc2)CC1,inactive: -15.8%,
CCCN1CC(Oc2ccc(-c3noc(-c4cccnc4)n3)cc2)C1,inactive: 36.7%,
O=C(NC1CCCCC1)[C@@H]1C[C@@H](O)CN1C1CCN(C(=O)c2n[nH]c(=O)c3ccccc23)CC1,,"inconclusive: 39.8 µM [inhibitor, single point]"
CCc1nc2c(c(-c3ccc(O)cc3)n1)CCN(Cc1cccc(C(F)(F)F)c1)CC2,inactive: 0.179%,
CCOc1ccc(-c2cc(CCCC(=O)NCCc3ccc(SC)cc3)no2)cc1,,"inconclusive: 1 µM [inhibitor, full curve]"
CCCCN(C(=O)CCn1c(=O)oc2ccccc21)c1ccccc1,,"inconclusive: 2.24 µM [inhibitor, full curve, poor fit]"
Cn1c(Oc2cccc(Cl)c2)nc2c1c(=O)n(Cc1ccccc1Cl)c(=O)n2C,inactive: -20.7%,
Cc1ccc(NS(=O)(=O)c2ccc3[nH]c4c(c3c2)CCCCCC4)cc1C,,"inconclusive: 39.8 µM [inhibitor, single point]"
O=C(NCCCc1ccccc1)c1n[nH]c2c1CN(C(=O)c1cc(F)ccc1F)CC2,,"inconclusive: 17.8 µM [inhibitor, partial curve, poor fit]"
COCCCNC(=O)CN1C(=O)COc2ccc(C(=O)COc3ccc(OC)cc3)cc21,,"inconclusive: 20 µM [inhibitor, single point]"
CN1CCN(C(=O)c2ccc3nccn3c2)CC1,,"inconclusive: 6.31 µM [inhibitor, single point]"

SMILES,"activity change, negative = inhibition",Potency
Cc1cccc(-c2cccc(CN3CCC(NC(=O)c4cccc(Cl)c4)CC3)c2)c1,,"inconclusive: 25.1 µM [inhibitor, single point]"
CCOC(=O)c1scc(-c2ccc(C)cc2)c1S(=O)(=O)N1CCN(c2ccccc2)CC1,,"inconclusive: 7.08 µM [inhibitor, single point]"
COc1ccc2nc(NC(=O)c3nc(S(=O)(=O)Cc4ccc(C)cc4)ncc3Cl)sc2c1,,"inconclusive: 39.8 µM [inhibitor, single point]"
O=C(CN1C(=O)c2ccccc2Sc2ncccc21)Nc1cccc(C(F)(F)F)c1,,"inconclusive: 22.4 µM [inhibitor, single point]"
CCOc1ccccc1NC(=O)CN(c1cc(C)cc(C)c1)S(=O)(=O)c1c(C)nn(C)c1C,,"inconclusive: 2.24 µM [inhibitor, full curve, poor fit]"
CC1CN(C(=O)N2CCC(C(=O)NCc3cccs3)CC2)c2ccccc2O1 (centres undefined),,"inconclusive: 20 µM [inhibitor, single point]"
CC(C)c1noc(CC2CCN(C(=O)c3ccc(F)cc3)CC2)n1,,"inconclusive: 25.1 µM [inhibitor, partial curve, poor fit]"
CCN1CCCC12Cc1ccccc1CN([S+](C)(=O)[O-])C2 (centres undefined),inactive: 5.61%,
O=C(c1ccccc1)N1Cc2ccccc2CC2(CCCCN2CC2CCNC2)C1 (centres undefined),inactive: -13%,
CC1=NS(=O)(=O)N(Cc2ccccc2)C=C1C(=O)OCc1noc(C2CCCCC2)n1,,"inconclusive: 22.4 µM [inhibitor, single point]"
COc1ccccc1Nc1ccnc(N2CCC(C(=O)NCc3ccc(C(F)(F)F)cc3)CC2)n1,,"inconclusive: 15.8 µM [inhibitor, partial curve, poor fit]"
CCOc1ccc(NC(=O)Cn2c(N3CCc4ccccc4C3)nc(C)cc2=O)cc1,inactive: -22.7%,
O=C1CCN(C2CCOCC2)CCCC(c2nc(-c3cccnc3)no2)CCN1 (centres undefined),,"inconclusive: 0.708 µM [inhibitor, full curve, poor fit]"
COc1ccc(CN2Cc3[nH]nc(-c4ccccc4Cl)c3CC2=O)cc1,,"inconclusive: 12.6 µM [inhibitor, single point]"
OCC1CN(Cc2cccnc2)CCC12CCN(Cc1cccc(O)c1)CC2 (centres undefined),,"inconclusive: 3.55 µM [inhibitor, single point]"
O=C(NOCC(O)CO)c1cc(Br)c(F)c(F)c1Nc1ccc(I)cc1F (centres undefined),inactive: 4.33%,
COc1ccccc1CNC(=O)[C@@H]1Cc2cn(C)c3cccc(c23)[C@H](CC(C)C)N1,,"inconclusive: 50.1 µM [inhibitor, single point]"
O=C(c1cccc(Cl)c1)N1CCc2nc(-c3ccccc3)nc(-c3ccc(Cl)cc3)c2C1,,"inconclusive: 39.8 µM [inhibitor, single point]"
CCOC(=O)c1ccccc1NC(=O)CSc1cn(CC(=O)N2CCCCCC2)c2ccccc12,,"inconclusive: 15.8 µM [inhibitor, partial curve, poor fit]"
CN(C)c1ccc(-c2cncnc2Nc2ccccc2)cc1,,"inconclusive: 39.8 µM [inhibitor, single point]"
